The values below come from publication PMC4336329 (PLoS ONE, 2015).

The campaign covered roughly 310,000 compounds. About 2,200 (0.71%) showed an effect of 50% or more. Effects have a minus sign here. This is one part of the list.

The target in the test is human ether-à-go-go-related gene (hERG) potassium channel (human, UniProt Q12809). As to the kind of experiment: primary screen, population patch clamp on CHO cells stably expressing hERG.
human ether-à-go-go-related gene (hERG) potassium channel, sequence (Q12809 whole entry, looked up): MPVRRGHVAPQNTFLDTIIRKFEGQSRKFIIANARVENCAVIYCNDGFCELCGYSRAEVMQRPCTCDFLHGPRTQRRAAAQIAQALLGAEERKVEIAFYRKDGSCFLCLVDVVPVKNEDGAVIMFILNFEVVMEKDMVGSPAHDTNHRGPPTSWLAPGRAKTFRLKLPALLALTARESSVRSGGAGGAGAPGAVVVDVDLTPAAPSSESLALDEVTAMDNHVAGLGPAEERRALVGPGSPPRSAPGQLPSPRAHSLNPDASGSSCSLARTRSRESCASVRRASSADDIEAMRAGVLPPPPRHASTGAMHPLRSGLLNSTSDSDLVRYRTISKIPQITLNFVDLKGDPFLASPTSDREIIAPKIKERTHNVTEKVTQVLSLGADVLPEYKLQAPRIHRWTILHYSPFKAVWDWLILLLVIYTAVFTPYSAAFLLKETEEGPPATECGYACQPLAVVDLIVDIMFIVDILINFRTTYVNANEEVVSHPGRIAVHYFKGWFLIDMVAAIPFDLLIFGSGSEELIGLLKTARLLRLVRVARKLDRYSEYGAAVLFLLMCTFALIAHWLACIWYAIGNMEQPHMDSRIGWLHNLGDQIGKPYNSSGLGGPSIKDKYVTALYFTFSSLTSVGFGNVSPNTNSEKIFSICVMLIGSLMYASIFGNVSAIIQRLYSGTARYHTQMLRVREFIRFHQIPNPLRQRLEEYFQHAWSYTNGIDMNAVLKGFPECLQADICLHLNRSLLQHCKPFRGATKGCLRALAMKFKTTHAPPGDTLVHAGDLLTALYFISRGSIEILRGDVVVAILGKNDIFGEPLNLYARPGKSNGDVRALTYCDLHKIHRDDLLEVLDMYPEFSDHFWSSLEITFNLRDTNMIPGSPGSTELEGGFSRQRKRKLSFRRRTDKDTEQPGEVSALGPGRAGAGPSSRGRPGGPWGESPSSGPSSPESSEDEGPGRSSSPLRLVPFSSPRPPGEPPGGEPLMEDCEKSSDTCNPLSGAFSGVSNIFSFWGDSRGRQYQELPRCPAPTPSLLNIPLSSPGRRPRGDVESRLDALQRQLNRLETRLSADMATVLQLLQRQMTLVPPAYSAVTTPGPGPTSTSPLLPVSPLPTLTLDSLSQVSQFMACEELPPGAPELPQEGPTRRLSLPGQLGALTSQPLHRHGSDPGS
`Cc1cccc(N2C(=O)CC(N3CCN(c4cccc(C(F)(F)F)c4)CC3)C2=O)c1` (stereo not shown): the “hERG current change (%, negative = inhibition) at 1uM” value is 10.5%.
In the case of `O=C(Nc1ccc(C(=O)N2CCCCC2)cc1)C1=CSCCO1` it was 16%.
For the compound `CCN(CC)S(=O)(=O)c1ccc(Cl)c(C(=O)NCc2ccco2)c1`, the “hERG current change (%, negative = inhibition) at 1uM” value is 7.88%.
In the case of `O=C(C1=C[C@@H](C2CCCCC2)C[C@@H](OCc2ccc(CO)cc2)O1)N1CCOCC1` it was 12%; in that of `COCCn1c(N2CCN(c3ccc(OC)cc3)CC2)nc2c1c(=O)[nH]c(=O)n2C`, -0.883%; in that of `CSc1nsc(SC)c1C(=O)NC(=O)Nc1cccnc1`, 12.4%.
For `C/C(=N\Nc1ccc([N+](=O)[O-])cc1)c1ccc(O)cc1`, the “hERG current change (%, negative = inhibition) at 1uM” value came to 8.33%.
With `COc1cc(NC(=S)NCCO)c(OC)cc1Cl` the figure was 7.87%; with `CCCn1c(N)c(C(=O)CSc2nc3ccccc3c(=O)n2Cc2ccccc2)c(=O)[nH]c1=O`, 6.89%.
With `O=C(CN1CCCCC1)N/N=C/c1cc2ccccc2nc1Cl`, the “hERG current change (%, negative = inhibition) at 1uM” value was found to be 5.11%.
Take `O=C1CC(Sc2nnc(-c3ccccc3O)o2)C(=O)N1c1ccccc1` (stereo not shown): the “hERG current change (%, negative = inhibition) at 1uM” value is listed as 7.68%.
Turning to `COc1ccc(S(=O)(=O)NC2CC(=O)N(c3cccc(F)c3)C2)cc1OC` (stereo not shown), the “hERG current change (%, negative = inhibition) at 1uM” value is given as 17.5%.
In the case of `CC(C)Cc1cc(C(=O)Nc2sc3c(c2C#N)CCCC3)no1` it was -5.51%; in that of `Cc1nnc(SCCn2c(N3CCCCC3)nc3c2c(=O)n(C)c(=O)n3C)s1`, 14%.
With `COc1ccc([C@H]2CC(=O)C=C(c3ccc(F)cc3OCc3ccccc3)C2)cc1` the figure was 11.4%; with `COc1cccc([C@@H]2CC=C(C(=O)O)[C@H](c3ccccc3)N2S(=O)(=O)c2ccc(C)cc2)c1`, 4.94%; with `Nc1cccc(Oc2cnccn2)c1`, 18%.
As to `COc1cc(OC)c(NC(=O)C2CCCN2C(=O)OCc2ccccc2)cc1Cl` (stereo not shown), the “hERG current change (%, negative = inhibition) at 1uM” value is 11.5%.
With `C=CCn1c(SCCC#N)nnc1-c1ccncc1`, the “hERG current change (%, negative = inhibition) at 1uM” value amounted to 2.7%.
On to `CCCCn1c(=O)c2ccccc2n2c(=S)[nH]nc12`, for which the “hERG current change (%, negative = inhibition) at 1uM” value amounted to 12%.
With `CCC(C)C(=O)Nc1cc(OC)c(OC)cc1C(=O)O` (stereo not shown), the “hERG current change (%, negative = inhibition) at 1uM” value is 1.26%.
With `CCCNC(=O)N1CCN(Cc2ccco2)CC1` the figure was 15%; with `COc1ccc(C2C(C(C)=O)=C(O)C(=O)N2c2ccc(O)cc2)cc1` (stereo not shown), 16%; with `Cc1cccc(NC(=O)C2C3C=CC(O3)C2C(=O)O)c1C` (stereo not shown), 12.8%.
`O=C(Nc1cccnc1)c1cc(-c2ccc(F)cc2)on1`: the “hERG current change (%, negative = inhibition) at 1uM” value was found to be 11.4%.
